# Laboratory results as given in the supplement of paper PMC8728848.
# This is one part of the list.
# B1: Si Bti9 1b-V5-his (Solanum lycopersicum) (protein)
# chain: MQCNRGCDLALASFYVWRGSNLTLISEMFSTSIADIVSYNNRDNIPNQDSVIAGTRINIPFRCDCLNDGEVLGHAFPYRVKSGDTYDLVARNYSDLTTAQWMMKFNSYPENNIPNTVNLSVVVNCSCGNSDVSKDFGLFVTYPVRAEDNLTSVASAANVSEDIIRRYNPAAVSILDIGQGIIYIPGRDRNGNFPPLPTSTDGLSGGAKKGGRADPAFLYKVVINSKLEGKPIPNPLLGLDSTRTGHHHHHH
# What was measured:
# Experiment in all cases: glycan array binding signal (z-score within array); higher = stronger binding
# Settings in all cases: glycan notation: IUPAC condensed, linker removed
# [1] = target: Fuc(a1-3)[Gal3S(b1-4)]GlcNAc6S
# Procedure, shortened: (§1)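 Columns mapping to the same glycan were averaged after glycan names were converted to IUPAC-condensed notation. The data come from 3228 arrays in the Consortium for Functional Glycomics database, limited to those with an available protein sequence. Binding is reported as a within-array Z-score averaged across arrays of one protein sequence and across linkers.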
# [2] = target: Fuc(a1-3)[GalNAc(b1-4)]GlcNAc
# Procedure, shortened: as §1
# [3] = target: Fuc(a1-3)[GalNAc(b1-4)]GlcNAc6S
# Procedure, shortened: as §1
# Fuc(a1-4)GlcNAc = target: Fuc(a1-4)GlcNAc
# Procedure, shortened: as §1
# Fuc(b1-3)GlcNAc = target: Fuc(b1-3)GlcNAc
# Procedure, shortened: as §1
# Gal(a1-2)Gal = target: Gal(a1-2)Gal
# Procedure, shortened: as §1
# Gal(a1-3)Gal = target: Gal(a1-3)Gal
# Procedure, shortened: as §1
# Gal(a1-3)Gal(b1-3)GlcNAc = target: Gal(a1-3)Gal(b1-3)GlcNAc
# Procedure, shortened: as §1
# [4] = target: Gal(a1-3)Gal(b1-3)GlcNAc(b1-2)Man
# Procedure, shortened: as §1
# [5] = target: Gal(a1-3)Gal(b1-3)GlcNAc(b1-2)Man(a1-3)[Gal(a1-3)Gal(b1-3)GlcNAc(b1-2)Man(a1-6)]Man(b1-4)GlcNAc(b1-4)GlcNAc
# Procedure, shortened: as §1
# [6] = target: Gal(a1-3)Gal(b1-3)GlcNAc(b1-3)GalNAc
# Procedure, shortened: as §1
# [7] = target: Gal(a1-3)Gal(b1-3)GlcNAc(b1-6)GalNAc
# Procedure, shortened: as §1
# [8] = target: Gal(a1-3)Gal(b1-3)[Fuc(a1-4)]GlcNAc(b1-2)Man(a1-3)[Gal(a1-3)Gal(b1-3)[Fuc(a1-4)]GlcNAc(b1-2)Man(a1-6)]Man(b1-4)GlcNAc(b1-4)GlcNAc
# Procedure, shortened: as §1
# Gal(a1-3)Gal(b1-4)Glc = target: Gal(a1-3)Gal(b1-4)Glc
# Procedure, shortened: as §1
# Gal(a1-3)Gal(b1-4)GlcNAc = target: Gal(a1-3)Gal(b1-4)GlcNAc
# Procedure, shortened: as §1
# [9] = target: Gal(a1-3)Gal(b1-4)GlcNAc(b1-2)Man
# Procedure, shortened: as §1
# [10] = target: Gal(a1-3)Gal(b1-4)GlcNAc(b1-2)Man(a1-3)[Gal(a1-3)Gal(b1-4)GlcNAc(b1-2)Man(a1-6)]Man(b1-4)GlcNAc(b1-4)GlcNAc
# Procedure, shortened: as §1
# [11] = target: Gal(a1-3)Gal(b1-4)GlcNAc(b1-3)GalNAc
# Procedure, shortened: as §1
# [12] = target: Gal(a1-3)Gal(b1-4)GlcNAc(b1-6)GalNAc
# Procedure, shortened: as §1
# [13] = target: Gal(a1-3)Gal(b1-4)[Fuc(a1-3)]GlcNAc
# Procedure, shortened: as §1
# [14] = target: Gal(a1-3)Gal(b1-4)[Fuc(a1-3)]GlcNAc(b1-2)Man(a1-3)[Gal(a1-3)Gal(b1-4)[Fuc(a1-3)]GlcNAc(b1-2)Man(a1-6)]Man(b1-4)GlcNAc(b1-4)GlcNAc
# Procedure, shortened: as §1
# Gal(a1-3)GalNAc = target: Gal(a1-3)GalNAc
# Procedure, shortened: as §1
# [15] = target: Gal(a1-3)[Gal(a1-4)]Gal(b1-4)GlcNAc
# Procedure, shortened: as §1
# [16] = target: Gal(a1-4)Gal(b1-3)GlcNAc(b1-2)Man(a1-3)[Gal(a1-4)Gal(b1-3)GlcNAc(b1-2)Man(a1-6)]Man(b1-4)GlcNAc(b1-4)GlcNAc
# Procedure, shortened: as §1
# Gal(a1-4)Gal(b1-4)Glc = target: Gal(a1-4)Gal(b1-4)Glc
# Procedure, shortened: as §1
# Gal(a1-4)Gal(b1-4)GlcNAc = target: Gal(a1-4)Gal(b1-4)GlcNAc
# Procedure, shortened: as §1
# [17] = target: Gal(a1-4)Gal(b1-4)GlcNAc(b1-2)Man(a1-3)[Gal(a1-4)Gal(b1-4)GlcNAc(b1-2)Man(a1-6)]Man(b1-4)GlcNAc(b1-4)GlcNAc
# Procedure, shortened: as §1
# [18] = target: Gal(a1-4)Gal(b1-4)GlcNAc(b1-3)Gal(b1-4)Glc
# Procedure, shortened: as §1
# Gal(a1-4)GlcNAc = target: Gal(a1-4)GlcNAc
# Procedure, shortened: as §1
# Gal(a1-6)Glc = target: Gal(a1-6)Glc
# Procedure, shortened: as §1
# Gal(b1-2)Gal = target: Gal(b1-2)Gal
# Procedure, shortened: as §1
# Gal(b1-3)Gal = target: Gal(b1-3)Gal
# Procedure, shortened: as §1
# Gal(b1-3)Gal(b1-4)GlcNAc = target: Gal(b1-3)Gal(b1-4)GlcNAc
# Procedure, shortened: as §1
# Gal(b1-3)GalNAc = target: Gal(b1-3)GalNAc
# Procedure, shortened: as §1
# [19] = target: Gal(b1-3)GalNAc(a1-3)[Fuc(a1-2)]Gal(b1-4)Glc
# Procedure, shortened: as §1
# [20] = target: Gal(b1-3)GalNAc(a1-3)[Fuc(a1-2)]Gal(b1-4)GlcNAc
# Procedure, shortened: as §1
# Gal(b1-3)GalNAc(b1-3)Gal = target: Gal(b1-3)GalNAc(b1-3)Gal
# Procedure, shortened: as §1
# [21] = target: Gal(b1-3)GalNAc(b1-3)Gal(a1-4)Gal(b1-4)Glc
# Procedure, shortened: as §1
# [22] = target: Gal(b1-3)GalNAc(b1-4)Gal(b1-4)Glc
# Procedure, shortened: as §1
# [23] = target: Gal(b1-3)GalNAc(b1-4)[Neu5Ac(a2-3)]Gal(b1-4)Glc
# Procedure, shortened: as §1
# Gal(b1-3)GlcNAc = target: Gal(b1-3)GlcNAc
# Procedure, shortened: as §1
# [24] = target: Gal(b1-3)GlcNAc(a1-3)Gal(b1-4)GlcNAc
# Procedure, shortened: as §1
# [25] = target: Gal(b1-3)GlcNAc(a1-6)Gal(b1-4)GlcNAc
# Procedure, shortened: as §1
# Gal(b1-3)GlcNAc(b1-2)Man = target: Gal(b1-3)GlcNAc(b1-2)Man
# Procedure, shortened: as §1
# [26] = target: Gal(b1-3)GlcNAc(b1-2)Man(a1-3)[Gal(b1-3)GlcNAc(b1-2)Man(a1-6)]Man(b1-4)GlcNAc(b1-4)GlcNAc
# Procedure, shortened: as §1
binder,measurement,setting,value
B1,glycan array binding signal (z-score),[1],-0.214
same,glycan array binding signal (z-score),[2],-0.214
same,glycan array binding signal (z-score),[3],-0.131
same,glycan array binding signal (z-score),Fuc(a1-4)GlcNAc,-0.202
same,glycan array binding signal (z-score),Fuc(b1-3)GlcNAc,-0.203
same,glycan array binding signal (z-score),Gal(a1-2)Gal,0.074
same,glycan array binding signal (z-score),Gal(a1-3)Gal,-0.128
same,glycan array binding signal (z-score),Gal(a1-3)Gal(b1-3)GlcNAc,11.5
same,glycan array binding signal (z-score),[4],6.21
same,glycan array binding signal (z-score),[5],0.09
same,glycan array binding signal (z-score),[6],-0.243
same,glycan array binding signal (z-score),[7],-0.312
same,glycan array binding signal (z-score),[8],0.176
same,glycan array binding signal (z-score),Gal(a1-3)Gal(b1-4)Glc,-0.169
same,glycan array binding signal (z-score),Gal(a1-3)Gal(b1-4)GlcNAc,-0.22
same,glycan array binding signal (z-score),[9],-0.206
same,glycan array binding signal (z-score),[10],-0.023
same,glycan array binding signal (z-score),[11],-0.164
same,glycan array binding signal (z-score),[12],-0.005
same,glycan array binding signal (z-score),[13],-0.242
same,glycan array binding signal (z-score),[14],0.331
same,glycan array binding signal (z-score),Gal(a1-3)GalNAc,-0.264
same,glycan array binding signal (z-score),[15],2.94
same,glycan array binding signal (z-score),[16],-0.153
same,glycan array binding signal (z-score),Gal(a1-4)Gal(b1-4)Glc,-0.25
same,glycan array binding signal (z-score),Gal(a1-4)Gal(b1-4)GlcNAc,-0.015
same,glycan array binding signal (z-score),[17],-0.224
same,glycan array binding signal (z-score),[18],-0.307
same,glycan array binding signal (z-score),Gal(a1-4)GlcNAc,-0.203
same,glycan array binding signal (z-score),Gal(a1-6)Glc,-0.212
same,glycan array binding signal (z-score),Gal(b1-2)Gal,0.494
same,glycan array binding signal (z-score),Gal(b1-3)Gal,-0.313
same,glycan array binding signal (z-score),Gal(b1-3)Gal(b1-4)GlcNAc,-0.219
same,glycan array binding signal (z-score),Gal(b1-3)GalNAc,-0.244
same,glycan array binding signal (z-score),[19],0.075
same,glycan array binding signal (z-score),[20],-0.253
same,glycan array binding signal (z-score),Gal(b1-3)GalNAc(b1-3)Gal,-0.268
same,glycan array binding signal (z-score),[21],0.081
same,glycan array binding signal (z-score),[22],0.054
same,glycan array binding signal (z-score),[23],-0.386
same,glycan array binding signal (z-score),Gal(b1-3)GlcNAc,-0.084
same,glycan array binding signal (z-score),[24],-0.269
same,glycan array binding signal (z-score),[25],-0.373
same,glycan array binding signal (z-score),Gal(b1-3)GlcNAc(b1-2)Man,-0.032
same,glycan array binding signal (z-score),[26],0.127
